Measured values: PubChem BioAssay AID652104 (National Center for Advancing Translational Sciences (NCATS), 2013)
Among all 410,000 compounds or so, about 7,200 (1.8%) were called active. This list was built around the results that the source calls inconclusive (neither active nor inactive); the mix of calls is not that of the screen. Calls come from the whole dose curve; as a rule, active = well fitted activation curve with a large enough effect; inconclusive = small, poorly fitted or top-dose-only effect, or another doubt; inactive = no such curve, though single readings can be large or run the other way. Where the call is inconclusive, the potency comes from a doubtful curve fit.

Assay: qHTS of TDP-43 Inhibitors; note: nearly all actives have a fitted effect of over 50% in size; for growth rescue (activation): % of control where 0% means no effect
Conditions: TDP-43 expressing yeast growth rescue, BacTiter-Glo, 24 h; growth rescue (activation): at 46.1 µM (top of the series) unless noted
Procedure, shortened: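 Yeast cells expressing TDP-43 under galactose induction are exposed to compounds for 24 hr at 30 deg C. BacTiter-Glo luminescence measures growth, so protective compounds score as activators.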
Potency is the fitted concentration of half-maximal effect; tags give direction and shape of the fitted curve.

Growth rescue (activation), inconclusive:
COc1cccc(/C=C2/CCC(CN(C)C)C2=O)c1 (stereo not drawn) -87.2% [activator]

Growth rescue (activation), inactive:
CCOC(=O)c1ccccc1OC(=O)CS(=O)c1ccccc1[N+](=O)[O-] (stereo not drawn) -16.2% [at 9.22 µM], O=C(NC1CCCCC1)C(c1ccc(F)cc1)N(Cc1ccc2c(c1)OCO2)C(=O)c1cnsn1 (stereo not drawn) -2.58%, O=C(CSc1nnc(CNC(=O)c2ccccc2)o1)NCc1ccc2c(c1)OCO2 -10.8%, CCN1CCC(N(Cc2ccc(F)cc2)C(=O)Nc2ccc(C)c(F)c2)CC1 -1.75%, CC(=O)N1c2ccc(S(=O)(=O)NCCC(=O)NC3CCCC(C)C3C)cc2CC1C (stereo not drawn) -9.21%, Cc1ccc2c(CNCCc3ccco3)c(C(=O)O)n(Cc3ccc(F)cc3)c2c1 6.01%, COc1ccc(NC(=O)CCCc2nnc3n(C(C)C)c(=O)c4sccc4n23)cc1Cl 12.3%, CC(C)C(=O)Nc1cc(C(F)(F)F)ccc1N1CCOCC1 6.38%, Cc1ccc2oc(-c3ccc(C)c(NC(=O)/C=C/c4ccc(Cl)cc4)c3)nc2c1 -0.953%, COC(=O)[C@H](Cc1ccccc1)NC(=O)/C=C/[C@H]1O[C@@H](n2cc(C)c(=O)[nH]c2=O)C[C@@H]1O 10.1%, CCN1CC(C)(C)N(C(=O)c2ccccc2)CC1(C)C 0%, O=C(CCCCCn1c(=O)c2sccc2n(Cc2ccc(Cl)cc2)c1=O)NCc1ccc2c(c1)OCO2 19.1%, Cc1ccc(S(=O)(=O)N(CC(=O)NCCSc2ccc(Cl)cc2)c2ccccc2C)cc1 4.04%, O=C(CN1CCN(S(=O)(=O)c2ccccc2)CC1)N1CCc2ccccc21 -5.67%, Cc1ccc(/C=C/c2nnc(-c3cccs3)o2)cc1 -6.04%, Brc1c(CSc2nncn2-c2ccccc2)nc2sccn12 -2.93%, COc1ccc(CN2C(=O)c3ccccc3C2c2nnnn2Cc2ccccc2)cc1OC (stereo not drawn) 22%

Potency, inconclusive:
Nc1ccc2nc(SCc3cccc(F)c3)sc2c1 15.8 µM [activator, single point], C[C@@H](NC(=O)c1[nH]cnc1C(=O)Nc1nccs1)c1ccccc1 10 µM [activator, partial curve, poor fit], Cc1ccc(CNC(=O)C(=O)c2cn(CC(=O)N3CCCC3)c3ccccc23)cc1 28.2 µM [activator, partial curve], CCOc1ccc(N2C(=O)CC(N3CCN(c4ccccc4OC)CC3)C2=O)cc1 (stereo not drawn) 22.4 µM [activator, single point], CC(C)CCN1CCC[C@]2(N[C@H](c3ccc(C(F)(F)F)cc3)[C@@H]3C(=O)N(Cc4ccccc4)C(=O)[C@@H]32)C1=O 0.316 µM [activator, full curve, poor fit], Cc1ccc(/C=N/NC(=O)C(C)Oc2cccc3ccccc23)o1 (stereo not drawn) 22.4 µM [activator, single point], CC(NC(=O)COc1ccccc1F)C1CC2CCC1C2 (stereo not drawn) 35.5 µM [activator, partial curve], CC(=O)C1=NN(c2ccccc2)C(c2ccc3c(c2)OCO3)N1c1ccccc1 (stereo not drawn) 11.2 µM [activator, partial curve], COc1cc(C(=O)Nc2ccc(-c3nc4cc(C)c(C)cc4o3)cc2)cc(OC)c1OC 35.5 µM [activator, partial curve, poor fit], Cc1ccc(SCCNC(=O)CN(c2cccc(C)c2C)S(C)(=O)=O)cc1 8.91 µM [activator, full curve, poor fit], Cn1c(SCc2nc3ccccc3s2)nnc1-c1cccs1 20 µM [activator, single point], COc1ccc(-c2nn(-c3ccccc3)cc2C(=O)Nc2nccs2)cc1 12.6 µM [activator, single point], O=[N+]([O-])c1ccccc1OCCCOc1cccc2cccnc12 10 µM [activator, single point], Cc1nc(N2CCOCC2)c2c(C(=O)N3CCN(c4cccc(C(F)(F)F)c4)CC3)c(C)oc2n1 11.2 µM [activator, partial curve], C[C@@H]1O[C@H](CCc2cccc(Cl)c2)CC2=C1C(=O)OC(C)(C)O2 35.5 µM [activator, single point], O=C(CSc1nccn1Cc1ccco1)Nc1ccc(OC(F)(F)F)cc1 1 µM [activator, full curve, poor fit], COc1ccc([C@@H]2CC=C(C(=O)O)[C@H](c3ccc(C)cc3)N2S(=O)(=O)c2ccccc2C)cc1 35.5 µM [activator, single point], Cn1c(=O)[nH]c(=O)c2c1nc(Br)n2Cc1ccc(Cl)cc1 0.282 µM [activator, full curve, poor fit], FC(F)(F)c1nnc(Nc2ccc(Cl)cc2)s1 20 µM [activator, single point], COc1ccc2nc(SCC(=O)N(C)C3CCCCC3)c(C#N)cc2c1 35.5 µM [activator, single point], COc1ccc(NC(=O)c2cc3sccc3n2Cc2ccc(F)cc2)cc1OC 35.5 µM [activator, partial curve], O=C(O)C1(Nc2ccc(Cl)cc2)CCCC1 35.5 µM [activator, single point], COc1nnc(-c2ccc(C)cc2)c2ccccc12 10 µM [activator, single point], Cc1nn(C)c(Oc2cccc(Cl)c2)c1C(=O)O 12.6 µM [activator, partial curve], O=C(Nc1cccc(NC(=O)c2ccco2)c1)c1cccc(Br)c1 35.5 µM [activator, single point], CC1(C(=O)NS(=O)(=O)c2cccc(Cl)c2)CCN1C(=O)C1CCCCC1 (stereo not drawn) 0.562 µM [activator, full curve], COc1cc(NC(=S)Nc2ccccn2)cc(OC)c1OC 17.8 µM [activator, single point], CCOc1cc(Br)c(Br)c(C=Nc2ccc(NC(C)=O)cc2)c1O 35.5 µM [activator, single point], Cc1ccccc1-c1cc2nc(NCc3ccc4occc4c3)n(C)c(=O)c2s1 25.1 µM [activator, single point], FC(F)(F)c1cccc(NC(=S)NNC(=S)NCc2ccccc2)c1 31.6 µM [activator, single point], Cc1cccc(-n2cc(-c3ccccc3)c3c(=O)[nH]cnc32)c1 12.6 µM [activator, partial curve], Cc1c(C(=O)NCc2ccccn2)sc(=O)n1Cc1ccc(-c2ccccc2)cc1 31.6 µM [activator, single point], C=CCOc1ccc(Cl)cc1-c1noc(-c2csc([C@H]3C[C@H](O)[C@@H](CO)O3)n2)n1 0.562 µM [activator, full curve], O=S1(=O)c2ccccc2N(Cc2ccc(Cl)cc2)c2ccccc21 14.1 µM [activator, single point], CCc1c(C)nc2nncn2c1NCc1ccccc1 12.6 µM [activator, partial curve], Cc1nc2ccc(NC(=O)c3ccc(S(=O)(=O)N(C)c4ccccc4)cc3)cc2s1 31.6 µM [activator, single point], Cc1cccc(C)c1NC(=O)/C(C#N)=C/c1cccs1 22.4 µM [activator, single point], CCOC(=O)C1=C(C2=CCCCC2)c2ccc(OC)cc2N(S(=O)(=O)C(F)(F)F)C1C(=O)OCC (stereo not drawn) 35.5 µM [activator, single point], CC1(c2ccccn2)Nc2ccccc2-c2nc3ccccc3n21 (stereo not drawn) 20 µM [activator, partial curve], O=C(COC(=O)CCSc1ccccc1)NCc1ccccc1Cl 17.8 µM [activator, single point], Cc1cc(C)c(C#N)c(N2CCN(C(=O)C3COc4ccccc4O3)CC2)n1 (stereo not drawn) 20 µM [activator, single point], N#Cc1c(-c2ccco2)cc(-c2ccccn2)nc1N 20 µM [activator, partial curve], CC1(C(=O)NS(=O)(=O)c2ccc(Cl)cc2)CCN1C(=O)C1(c2ccc(Cl)cc2)CC1 (stereo not drawn) 22.4 µM [activator, single point], CC(C(=O)N1CCN(c2ccc(Cl)cc2)CC1)c1ncc(C(F)(F)F)cc1Cl (stereo not drawn) 31.6 µM [activator, single point], O=[N+]([O-])c1ccc(Sc2cccc3cccnc23)cc1 15.8 µM [activator, single point], O=C(c1ccc2c(=O)n(C3CCCC3)c(=S)[nH]c2c1)N1CCCCCC1 28.2 µM [activator, single point]

Potency, active:
Cc1cc(Oc2ccc(-c3ccccc3)cc2)n2ncnc2n1 17.8 µM, Clc1cccc(NCc2nnc(SCc3ccccc3Cl)o2)c1 12.6 µM, COc1ccc(CN(CC2CCC(C(=O)O)CC2)C(=S)Nc2cc(C)ccc2C)cc1 (stereo not drawn) 22.4 µM, Cc1ccnc(NC(=O)Cc2ccc(-c3ccccc3)cc2)c1 14.1 µM
